From the supplement of paper PMC12217912
The list shows a part of the results. The full chains were built here from the parent and the listed change. Inactive controls read about 0.05.

B1: TEV protease; numbered along this chain (parent)
chain: MGESLFKGPRDYNPISSSICHLTNESDGHTTSLYGIGFGPFIITNKHLFRRNNGTLVVQSLHGVFKVKDTTTLQQHLVDGRDMIIIRMPKDFPPFPQKLKFREPQREERICLVTTNFQTKSMSSMVSDTSCTFPSGDGIFWKHWIQTKDGQCGSPLVSTRDGFIVGIHSASNFTNTNNYFTSVPKNFMELLTNQEAQQWVSGWRLNADSVLWGGHKVFMVKPEEPFQPVKEATQL

Variants of: B1
Assay: raw area under fraction-flipped curve 0-4 h after induction (AUC4h, not background-subtracted), DNA-recorder readout of cleavage of the substrate (dimensionless); higher = more cleavage of the substrate by the protease variant
Settings: temperature: 34 °C; time window: 0-4 h after rhamnose induction
Method: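 In vivo DNA recorder in E. coli TOP10(DE3) ΔrhaA at 34 °C. Each TEVp single-site mutant (parent TEVp 0) is paired with a single-site variant of the 7-mer TEVs (canonical ENLYFQ|S). The substrate sits between flexible linkers in a Bxb1-sfGFP-TEVs-SsrA fusion, so cleavage stabilises Bxb1 and speeds flipping of a recombination array, read by NGS. The value is the raw area under the fraction-flipped curve over 0-4 h after rhamnose induction (AUC4h), with ≥20 reads per time point. It is not background-subtracted; inactive controls average about 0.047.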
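Further: Bxb1 expression induced with 0.2% (w/v) L-rhamnose at OD600 near 0.5, cultures sampled hourly, flipped fraction per protease–substrate barcode pair counted by paired-end Illumina sequencing.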

Row | Variant | area with substrate ENLYFAS | area with substrate ENLYFES | area with substrate ENLYFFS | area with substrate ENLYFGS | area with substrate ENLYFHS | area with substrate ENLYFIS | area with substrate ENLYFKS | area with substrate ENLYFLS | area with substrate ENLYFNS | area with substrate ENLYFPS | area with substrate ENLYFTS | area with substrate ENLYFVS | area with substrate ENLYFWS | area with substrate ENLYFDS | area with substrate ENLYFMS | area with substrate ENLYFRS | area with substrate ENLYFYS | area with substrate ENLYFCS | area with substrate ENLYFSS
1 | MGESLFKGPRDYNPISSSICHLTNESDGHTTSLYGIGFGPFIITNKHLFRRNNGTLVVQSLHGVFKVKDTTTLQQHLVDGRDMIIIRMPKDFPPFPQKLKFREPQREERICLVTTNFQTKSMSSMVSDTSCTFPSGDGIFWKHWIQTKDGQCGSPLVSTRDGFIVGIHSASNFTNTNNYFTSVPKNFMELLTNQEAQQWVSGWRLNADSVLWGGNKVFMVKPEEPFQPVKEATQL [H215N] | 0.0879 | 0.0552 | 0.0692 | 0.0642 | 0.0496 | 0.0488 | 0.0541 | 0.0685 | 0.0539 | 0.0565 | 0.0699 | 0.0554 | 0.0558 |  |  |  |  |  | 
2 | MGESLFKGPRDYNPISSSICHLTNESDGHTTSLYGIGFGPFIITNKHLFRRNNGTLVVQSLHGVFKVKDTTTLQQHLVDGRDMIIIRMPKDFPPFPQKLKFREPQREERICLVTTNFQTKSMSSMVSDTSCTFPSGDGIFWKHWIQTKDGQCGSPLVSTRDGFIVGIHSASNFTNTNNYFTSVPKNFMELLTNQEAQQWVSGWRLNADSVLWGGHKVFMVKPEEPFQCVKEATQL [P228C] | 0.0598 | 0.0585 |  |  |  | 0.0505 | 0.0789 | 0.0622 | 0.0521 | 0.0686 | 0.0566 |  |  | 0.0658 | 0.0614 | 0.0662 | 0.057 |  | 
3 | MGESLFKGPRDYNPISSSICHLTNESDGHTTSLYGIGFGPFIITNKHLFRRNNGTLVVQSLHGVFKVKDTTTLQQHLVDGRDMIIIRMPKDFPPFPQKLKFREPQREERICLVTTNFQTKSMSSMVSDTSCTFPSGDGIFWKHWIQTKCGQCGSPLVSTRDGFIVGIHSASNFTNTNNYFTSVPKNFMELLTNQEAQQWVSGWRLNADSVLWGGHKVFMVKPEEPFQPVKEATQL [D149C] | 0.0585 | 0.0922 | 0.0629 | 0.0718 |  |  |  |  | 0.072 | 0.027 |  |  | 0.0453 |  | 0.0466 | 0.0604 | 0.0727 | 0.0373 | 
4 | MGESLFKGPRDYNPISSSICHLTNESDGHTTSLYGIGFGPFIITNKHLFRRNNGTLVVQSLHGVFKVKDTTTLQQHLVDGRDMIIIRMPKDFPPFPQKLKFREPQREERICLVTTMFQTKSMSSMVSDTSCTFPSGDGIFWKHWIQTKDGQCGSPLVSTRDGFIVGIHSASNFTNTNNYFTSVPKNFMELLTNQEAQQWVSGWRLNADSVLWGGHKVFMVKPEEPFQPVKEATQL [N116M] | 0.0561 |  | 0.0635 | 0.0558 |  | 0.0617 | 0.0538 |  |  | 0.0603 |  |  | 0.0575 |  |  |  | 0.0521 |  | 
5 | MGESLFKGPRDYNPISSSICHLTNESDGHTTSLYGIGFGPFIITNKHLFRRNNGTLVVQSLHGVFKVKDTTTLQQHLKDGRDMIIIRMPKDFPPFPQKLKFREPQREERICLVTTNFQTKSMSSMVSDTSCTFPSGDGIFWKHWIQTKDGQCGSPLVSTRDGFIVGIHSASNFTNTNNYFTSVPKNFMELLTNQEAQQWVSGWRLNADSVLWGGHKVFMVKPEEPFQPVKEATQL [V78K] | 0.0484 | 0.0708 | 0.0609 |  | 0.0585 | 0.0525 | 0.0653 |  | 0.0487 | 0.0541 | 0.0579 | 0.0596 |  |  | 0.0388 | 0.0723 |  | 0.052 | 0.0568
6 | MGESLFKGPRDYNPISSSICHLTNESDGHTTSLYGIGFGPFMITNKHLFRRNNGTLVVQSLHGVFKVKDTTTLQQHLVDGRDMIIIRMPKDFPPFPQKLKFREPQREERICLVTTNFQTKSMSSMVSDTSCTFPSGDGIFWKHWIQTKDGQCGSPLVSTRDGFIVGIHSASNFTNTNNYFTSVPKNFMELLTNQEAQQWVSGWRLNADSVLWGGHKVFMVKPEEPFQPVKEATQL [I42M] | 0.0705 | 0.0569 | 0.0759 | 0.0589 | 0.0593 | 0.0471 | 0.064 | 0.0474 | 0.064 | 0.0536 | 0.0656 | 0.0333 | 0.0471 |  | 0.0618 |  |  | 0.052 | 0.0433
7 | MGESLFKGPRDYNPISSSICHLTNESDGHTTSLYGIGFGPFIITNKHLFRRNNGTLVVQSLHGVFKVKDTTTLQQHLVDGRDMIIIRMPKDFPPFPQKLKFREPQREERICLVTTNFQTKSMSSMVSDTSCTFPSGDGIFWKHWIQTKDGQCGSPLVSTRDGFIVGIHSASNFTNTNNYFSSVPKNFMELLTNQEAQQWVSGWRLNADSVLWGGHKVFMVKPEEPFQPVKEATQL [T181S] | 0.0539 | 0.0623 |  |  |  | 0.0537 | 0.0469 | 0.063 |  |  |  |  | 0.0505 | 0.0639 | 0.0611 | 0.0641 |  |  | 
8 | MGESLFKGPRDYNPISSSICHLTNESDGHTTSLYGIGFGPFIITNKHLFRRNNGTLVVQSLHGVFKVKDTTTLQQHLVDGRDMIIIRMPKDFPPFPQKLKFREPQREERICLVTTNFQTKSMSSMVSDTSCTFPSGDGIFWKHWIQTKDGQCGSPLVSTRDGFIVGIHSASNFTNTNNYFTSVPKNFMELLTNQEAQQWVSGWRLNADSVLWGGHKVFMVKPEEPFNPVKEATQL [Q227N] | 0.0556 | 0.0382 | 0.0609 |  | 0.0503 | 0.049 | 0.0505 |  |  | 0.0576 |  | 0.0503 | 0.0574 | 0.0657 | 0.0514 | 0.0534 |  | 0.079 | 
9 | MGESLFKGPRDYNPISSSICHLTNESDGHTTSLYGIGFGPFIITNKHLFRRNNGTLVVQSLHGVFKVKDYTTLQQHLVDGRDMIIIRMPKDFPPFPQKLKFREPQREERICLVTTNFQTKSMSSMVSDTSCTFPSGDGIFWKHWIQTKDGQCGSPLVSTRDGFIVGIHSASNFTNTNNYFTSVPKNFMELLTNQEAQQWVSGWRLNADSVLWGGHKVFMVKPEEPFQPVKEATQL [T70Y] | 0.0535 | 0.0595 | 0.0687 |  | 0.0585 | 0.0534 | 0.0569 |  | 0.0624 |  | 0.0432 |  | 0.0519 |  | 0.0575 | 0.0437 | 0.0386 |  | 0.06
